Measured values reported in the antibiotic and cytotoxicity screens of Wong et al. (2023).
The list shows a part of the results.

Legend:
[1] = tested on: HSkMC (human skeletal muscle cells); assay: cytotoxicity call (relative viability < 0.9); conditions: 10 µM
[2] = tested on: HepG2; assay: cytotoxicity call (relative viability < 0.9); conditions: 10 µM
[3] = tested on: S. aureus RN4220; assay: growth inhibition call (relative growth <= 0.2); conditions: 50 µM

For CO[C@@H](CN(C)S(=O)(=O)c1cn(C)cn1)[C@H](C)CN(C(=O)Nc1ccc(C(F)(F)F)cc1)[C@@H](C)CO, the cytotoxicity call [1] was “inactive”, the cytotoxicity call [2] was “inactive” and the growth inhibition call [3] was “active”.

With Cc1noc(C)c1S(=O)(=O)N(C)C[C@@H]1Oc2ccc(NC(=O)Cn3cnnn3)cc2C(=O)N([C@@H](C)CO)C[C@@H]1C the cytotoxicity call [1] was “inactive”, the cytotoxicity call [2] was “inactive” and the growth inhibition call [3] was “inactive”.

In the case of O=C1CO[C@@H](c2ccccc2)CN1, the cytotoxicity call [1] is reported as “inactive”, the cytotoxicity call [2] is reported as “inactive” and the growth inhibition call [3] is reported as “inactive”.

For C=c1[nH]/c(=C/c2cccnc2)c(=O)o1, the cytotoxicity call [1] was “inactive”, the cytotoxicity call [2] was “inactive” and the growth inhibition call [3] was “inactive”.

In the case of COc1cccc(NC(=O)N2C[C@H](O)COC[C@H]3O[C@H](CC(=O)NC4Cc5ccccc5C4)CC[C@@H]32)c1, the cytotoxicity call [1] is reported as “inactive”, the cytotoxicity call [2] is reported as “inactive” and the growth inhibition call [3] is reported as “inactive”.

In the case of Cc1noc(C)c1NC(=O)Nc1ccc2c(c1)C(=O)N([C@H](C)CO)C[C@H](C)[C@H](CN(C)Cc1ccc3c(c1)OCO3)OCCCC[C@H](C)O2, the cytotoxicity call [1] is reported as “inactive”, the cytotoxicity call [2] is reported as “inactive” and the growth inhibition call [3] is reported as “inactive”.

NNC(=O)c1ccncc1 was tested, and the cytotoxicity call [1] was “inactive” and the growth inhibition call [3] was “inactive”.

In the case of COc1cccc(S(=O)(=O)N[C@@H]2CC[C@H](CCn3cc(-c4ccccc4OC)nn3)O[C@@H]2CO)c1, the cytotoxicity call [1] is reported as “inactive”, the cytotoxicity call [2] is reported as “inactive” and the growth inhibition call [3] is reported as “inactive”.

Cc1noc(C)c1S(=O)(=O)N(C)C[C@@H]1Oc2ccc(NC(=O)CCCN(C)C)cc2C(=O)N([C@H](C)CO)C[C@@H]1C was tested, and the cytotoxicity call [1] was “inactive”, the cytotoxicity call [2] was “inactive” and the growth inhibition call [3] was “inactive”.

In the case of OCC(O)CO, the cytotoxicity call [1] is reported as “inactive” and the growth inhibition call [3] is reported as “inactive”.

For C[C@H]1CCCCO[C@H](CN(C)S(=O)(=O)c2cn(C)cn2)[C@@H](C)CN([C@@H](C)CO)C(=O)c2cc(NS(=O)(=O)c3ccc(F)cc3)ccc2O1, the cytotoxicity call [1] was “inactive”, the cytotoxicity call [2] was “inactive” and the growth inhibition call [3] was “inactive”.

C[C@@H]1CCCCO[C@@H](CN(C)S(=O)(=O)c2ccc(F)cc2)[C@@H](C)CN([C@@H](C)CO)C(=O)c2cc(NC(=O)Nc3ccc(C(F)(F)F)cc3)ccc2O1 was tested, and the cytotoxicity call [1] was “inactive”, the cytotoxicity call [2] was “active” and the growth inhibition call [3] was “inactive”.

With CO[C@H]1O[C@H](CO)[C@@H](OC(=O)Nc2ccc(Oc3ccccc3)cc2)[C@H](OC(=O)Nc2ccccc2)[C@H]1OC(=O)Nc1ccccc1 the cytotoxicity call [1] was “inactive”, the cytotoxicity call [2] was “inactive” and the growth inhibition call [3] was “inactive”.

For O=C(C[C@@H]1C[C@H]2c3cc(NC(=O)C4CCOCC4)ccc3O[C@H]2[C@H](CO)O1)NCc1cc(F)ccc1F, the cytotoxicity call [1] was “inactive”, the cytotoxicity call [2] was “inactive” and the growth inhibition call [3] was “inactive”.

In the case of C[C@@H]1CN([C@@H](C)CO)C(=O)c2cc(NC(=O)CCC(F)(F)F)ccc2O[C@@H](C)CCCCO[C@@H]1CN(C)S(=O)(=O)c1cccs1, the cytotoxicity call [1] is reported as “inactive”, the cytotoxicity call [2] is reported as “inactive” and the growth inhibition call [3] is reported as “inactive”.

C[C@@H]1CCCCO[C@H](CN(C)Cc2ccccc2)[C@H](C)CN([C@@H](C)CO)C(=O)c2cc(NC(=O)Nc3cccc4ccccc34)ccc2O1 was tested, and the cytotoxicity call [1] was “active”, the cytotoxicity call [2] was “active” and the growth inhibition call [3] was “inactive”.

For C[C@H](CO)N1C[C@H](C)[C@H](CN(C)Cc2ccc(C(F)(F)F)cc2)OCCCC[C@H](C)Oc2ccc(NC(=O)c3ccncc3)cc2C1=O, the cytotoxicity call [1] was “inactive”, the cytotoxicity call [2] was “inactive” and the growth inhibition call [3] was “inactive”.

For OCc1ccccc1O, the cytotoxicity call [1] was “inactive” and the growth inhibition call [3] was “inactive”.

C[C@@H]1CN([C@@H](C)CO)C(=O)c2cc(C#C[C@@H](C)O)cnc2O[C@@H]1CN(C)Cc1cncnc1 was tested, and the cytotoxicity call [1] was “inactive”, the cytotoxicity call [2] was “inactive” and the growth inhibition call [3] was “inactive”.

In the case of S=P(N1CC1)(N1CC1)N1CC1, the cytotoxicity call [1] is reported as “inactive” and the growth inhibition call [3] is reported as “inactive”.

O=C(c1cccnc1)N1CCOCC1 was tested, and the cytotoxicity call [1] was “inactive”, the cytotoxicity call [2] was “active” and the growth inhibition call [3] was “inactive”.

For C[C@@H]1CN([C@H](C)CO)C(=O)c2cc(NC(=O)Nc3ccc(C(F)(F)F)cc3)ccc2O[C@@H]1CN(C)Cc1ccc(Cl)c(Cl)c1, the cytotoxicity call [1] was “active”, the cytotoxicity call [2] was “active” and the growth inhibition call [3] was “inactive”.

With COc1ccc(NC(=O)Nc2cccc3c2O[C@@H](CN(C)Cc2ccc(Oc4ccccc4)cc2)[C@@H](C)CN([C@H](C)CO)C3=O)cc1 the cytotoxicity call [1] was “active”, the cytotoxicity call [2] was “active” and the growth inhibition call [3] was “inactive”.

Cc1ccc(S(=O)(=O)N(C)C[C@H]2Oc3c(NS(=O)(=O)c4cccs4)cccc3C(=O)N([C@H](C)CO)C[C@@H]2C)cc1 was tested, and the cytotoxicity call [1] was “inactive”, the cytotoxicity call [2] was “inactive” and the growth inhibition call [3] was “inactive”.

C[C@@H]1CN([C@@H](C)CO)C(=O)c2cc(NC(=O)CCC(F)(F)F)ccc2O[C@H]1CN(C)S(=O)(=O)c1cn(C)cn1 was tested, and the cytotoxicity call [1] was “inactive”, the cytotoxicity call [2] was “inactive” and the growth inhibition call [3] was “inactive”.

With Cc1ccc2nc(-c3ccco3)[nH]c2c1 the cytotoxicity call [1] was “inactive”, the cytotoxicity call [2] was “inactive” and the growth inhibition call [3] was “inactive”.

Cc1ccc(S(=O)(=O)N(C)C[C@H]2Oc3ccc(NC(=O)CCN4CCOCC4)cc3C(=O)N([C@@H](C)CO)C[C@@H]2C)cc1 was tested, and the cytotoxicity call [1] was “inactive”, the cytotoxicity call [2] was “active” and the growth inhibition call [3] was “inactive”.

C[C@H](CO)N1C[C@H](C)[C@@H](CN(C)Cc2ccc(-c3ccccc3)cc2)Oc2c(NC(=O)c3ccc(-c4nccs4)cc3)cccc2C1=O was tested, and the cytotoxicity call [1] was “inactive”, the cytotoxicity call [2] was “inactive” and the growth inhibition call [3] was “inactive”.
